US20250319056A1, “METHODS FOR TREATING CANCER” (THE TRUSTEES OF INDIANA UNIVERSITY, priority 2024, published 2025)
For some of these results: At least one read-out could not be matched to a standard name with certainty. Some of these results come from one statement about several compounds together.

Assays:
HCT-116 cells = test: AlamarBlue cell viability assay, HCT-116 colon cancer cells; assay type: cell-based, human; settings: for selectivity index (SI): colorectal cancer cells over non-cancer cells; for EC50: AlamarBlue, 48 h with compound
NCI-60 cancer cell panel = settings: NCI-60 panel; cited from earlier work

| SMILES | selectivity index (SI) (HCT-116 cells) | EC50 (HCT-116 cells) [µM] | also measured |
| --- | --- | --- | --- |
| CCOc1ccc(S(=O)(=O)Nc2ccc(C(=O)N/N=C/c3ccc([N+](=O)[O-])o3)cc2)cc1 [Compound 132, 4-ethoxy-N-(4-(2-((5-nitrofuran-2-yl)methylene)hydrazine-1-carbonyl)phenyl)benzenesulfonamide] | > 15 fold | – | – |
| O=C(N/N=C/c1ccc([N+](=O)[O-])o1)c1ccc(O)cc1 [Nifuroxazide (Nfz), Nifuroxazide, reference compound] | – | – | EC50 results reported in the NCI database (NCI-60 cancer cell panel): potency across nearly the entire panel of cancer cell lines |
| COc1ccc(C(=O)N/N=C/c2cccc3ccccc23)cc1 [Compound 152] | – | > 100 | – |
| COc1ccc(C(=O)N/N=C/c2ccc(O)c3ccccc23)cc1 [Compound 148] | – | > 100 | – |
| O=C(N/N=C/c1ccc([N+](=O)[O-])o1)c1ccc(NS(=O)(=O)c2ccc(Br)cc2)cc1 [Compound 131] | > 15 fold | – | – |
| COc1ccc(C(=O)N/N=C/c2ccc([N+](=O)[O-])o2)cc1 [Compound 124] | > 15 fold | – | – |
| COc1ccc(C(=O)N/N=C/c2ccccc2)cc1 [Compound 156] | – | > 100 | – |
| CN(C)c1ccc(C(=C2C=CC(=[N+](C)C)C=C2)c2ccc(N(C)C)cc2)cc1 [Compound 56, Crystal Violet, reference compound] | greater than 5 fold | – | – |
| CCCCCOc1ccc(/C=C2\Oc3c(ccc(O)c3O)C2=O)c(O)c1 [Compound 86] | greater than 5 fold | – | – |
| O=C(N/N=C/c1ccc(O)c2ncccc12)c1cccs1 [Compound 135] | > 15 fold | – | – |
| O=C(N/N=C/c1ccc(O)cc1)c1ccccc1 [Compound 155] | – | > 100 | – |
| O=C(N/N=C/c1ccc([N+](=O)[O-])o1)c1cccc(Oc2ccccc2)c1 [Compound 128, N′-((5-nitrofuran-2-yl)methylene)-3-phenoxybenzohydrazide] | > 15 fold | – | – |
| O=C(N/N=C/c1cccc2ncccc12)c1ccccc1 [Compound 151] | – | > 100 | – |
| CC(C)n1c(/C=C/C(O)CC(O)CC(=O)O)c(-c2ccc(F)cc2)c2ccccc21 (stereo not shown) [Compound 82, Fluvastatin sodium, reference compound] | greater than 5 fold | – | Average Selectivity Index (HCT-116 cells; CC50 non-cancer cells (FHC, FHs 74Int) compared to EC50 HCT-116): 6.2-15 |
| COc1ccc(C(=O)N/N=C/c2cccc3ncccc23)cc1 [Compound 150] | – | > 100 | – |
| COc1ccc(C(=O)N/N=C/c2ccc(O)cc2)cc1 [Compound 154] | – | > 100 | – |
| O=C(N/N=C/c1ccc(O)c2ccccc12)c1ccccc1 [Compound 149] | – | > 100 | – |
| CCOc1ccc(S(=O)(=O)Nc2ccc(C(=O)N/N=C/c3ccc(O)c4ncccc34)cc2)cc1 [Compound 147, 4-ethoxy-N-(4-(2-((8-hydroxyquinolin-5-yl)methylene)hydrazine-1-carbonyl)phenyl)benzenesulfonamide] | > 15 fold | – | – |
| O=C(N/N=C/c1ccccc1)c1ccccc1 [Compound 157] | – | > 100 | – |
| O=C(N/N=C/c1cccc2ccccc12)c1ccccc1 [Compound 153] | – | > 100 | – |
| Oc1cccc(C(Nc2nccs2)c2ccc3cccnc3c2O)c1 (stereo not shown) [Compound 90] | greater than 5 fold | – | – |
